PubChem BioAssay AID743262 (National Center for Advancing Translational Sciences (NCATS), 2014)
Screen size: about 1,300 compounds; about 25 (2%) were called active. This list was built around the results that the source calls inconclusive (neither active nor inactive); the mix of calls is not that of the screen. Calls follow the shape of the dose curve; as a rule, active = well fitted activation curve with a large enough effect; inconclusive = small, poorly fitted or top-dose-only effect; inactive = flat fitted curve, though single readings scatter. A potency beside an inconclusive call is a rough fit, not a confirmed value.

biological target: Glucagon-like peptide 1 receptor (Homo sapiens) (UniProt P43220); assay: qHTS of GLP-1 Receptor Agonists: Hit Validation; settings: HEK293 GLP-1R, cAMP-response luciferase, 4-6 h; series mostly up to 46.1 µM
Chain of UniProt P43220 (P43220 whole entry, looked up): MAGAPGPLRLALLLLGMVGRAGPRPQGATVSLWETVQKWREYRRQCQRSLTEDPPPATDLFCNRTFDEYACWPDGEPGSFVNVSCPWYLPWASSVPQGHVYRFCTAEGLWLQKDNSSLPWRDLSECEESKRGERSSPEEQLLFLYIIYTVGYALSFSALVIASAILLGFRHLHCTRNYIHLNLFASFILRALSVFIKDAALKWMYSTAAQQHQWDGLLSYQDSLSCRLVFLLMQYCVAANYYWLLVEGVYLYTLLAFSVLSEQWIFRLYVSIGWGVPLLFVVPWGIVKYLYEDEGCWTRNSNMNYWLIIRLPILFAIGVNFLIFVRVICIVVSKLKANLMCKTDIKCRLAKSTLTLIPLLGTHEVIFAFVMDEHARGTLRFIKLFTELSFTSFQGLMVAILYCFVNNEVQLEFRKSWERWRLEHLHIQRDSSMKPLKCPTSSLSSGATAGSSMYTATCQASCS
Description: The overall goal of this project was to develop a novel assay for discovering small molecule ligands for class B1 G protein-coupled receptors (GPCRs). Very few agonists (or inverse agonists) with generally weak activity for this entire group of physiologically important receptors are known to date. To establish proof-of-principle that this critical bottleneck can be overcome with a suitable screening approach, our studies focused on the class B1 receptor for glucagon-like peptide-1 (GLP-1R), a potential therapeutic target for diabetes and neurodegenerative disease. The assay was developed in a "mix and measure" format using a cell-based functional readout. Toward this goal, stably transfected HEK293 cell clones were established that co-express (i) a cAMP-responsive luciferase reporter gene, and (ii) GLP-1Rs that upon ligand interaction either stimulate (agonists) or inhibit (inverse agonists) luciferase activity. In different cell lines to be used for screening, expressed GLP-1Rs are specifically optimized for high sensitivity detection of either weak agonists (hypersensitive receptor) or inverse agonists (constitutively active receptor mutant). In addition, control cell lines were developed that express either the cAMP-responsive reporter gene without recombinant GLP-1Rs (enabling initial exclusion of GLP-1R independent effects of candidate probes), or the reporter gene together with wild type GLP-1Rs (for confirmation of probe activity at this receptor), or the reporter gene in combination with the constitutively active orphan receptor GPR119 (enabling initial exclusion of GLP-1R independent inhibitory effects of candidate inverse agonists). To that end, this assay was optimized for 1536-well format and screened against the MLSMR. NIH Molecular Libraries Probe Production Network [MLPCN] NIH Chemical Genomics Center [NCGC] Grant: NS064851 PI Name: Martin Beinborn, Tufts Medical Center
In a white solid 1536-well plate, 6 uL of cells are dispensed in DMEM without phenol red, 10% Nu serum, and 1% pen-strep medium. The plates are then incubated for 12 hours at 37 deg C at 5% CO2 before 23 nL of compounds are added. After a 4-6 hr incubation at37 deg C and 5% CO2, 3 uL of detection reagent are added and after a 12 min incubation at RT, a luminescent read is obtained on the ViewLux.
Potency is read from the fitted curve at half-maximal effect; tags tell the direction and shape of the fitted curve.

Row | SMILES | Potency
1 | CC(C)n1nnnc1SCC(=O)N1N=C(c2cccs2)CC1c1cccs1 (stereo not given) | inactive
2 | COc1ccc(C(=O)/C=C2\NCCc3cc(OC)c(OC)cc32)cc1OC | inconclusive: 18.4 µM [activator, partial curve]
3 | COc1ccc(-c2nc(C)c(CCNC(=O)c3cccs3)s2)cc1OC | inconclusive: 5.17 µM [activator, full curve]
4 | Nc1c(Cl)cc(-c2csc(NC(CO)c3nc4ccccc4n3CCOCCO)n2)cc1Cl (stereo not given) | inconclusive: 20.6 µM [activator, partial curve]
5 | COc1cc2c(cc1OC)/C(=C/C(=O)c1ccc(OC)c([N+](=O)[O-])c1)NCC2 | inconclusive: 14.6 µM [activator, partial curve]
6 | Oc1ccc(C(O)CNCCCCCCNCC(O)c2ccc(O)c(O)c2)cc1O (stereo not given) | inconclusive: 0.231 µM [activator, full curve]
7 | CC(CCc1ccccc1)NCC(O)c1cccc([N+](=O)[O-])c1 (stereo not given) | inconclusive: 0.0259 µM [activator, full curve]
8 | N/C(Cc1ccc(Cl)cc1Cl)=N\OC(=O)c1ccccc1 | inconclusive: 20.6 µM [activator, single point]
9 | COc1cc2c(cc1OC)-c1cc(Nc3cccc(C)c3)nc(=O)n1CC2 | inconclusive: 9.2 µM [activator, partial curve]
10 | CCOC(=O)c1sc(NC(=O)/C=C/c2cnn(CC)c2C)c(C(=O)OCC)c1C | inactive
11 | N/C(Cc1ccc(Cl)c(Cl)c1)=N\OC(=O)c1ccc(Br)o1 | inconclusive: 5.8 µM [activator, partial curve]
12 | CSc1ccc(COC(=O)c2cc([N+](=O)[O-])ccc2N2CCOCC2)cc1 | inconclusive: 9.2 µM [activator, partial curve]
13 | COC(=O)c1ccc(CSc2nnc3nc(C)cc(C)n23)cc1 | inactive
14 | COc1ccc(C2=Nn3c(nnc3-c3ccccc3Cl)SC2)cc1OCC1CC1 | inconclusive: 20.6 µM [activator, partial curve]
15 | COC(=O)c1sc(NC(=O)CSc2nc3cccnc3n2C2CCCCC2)nc1C | inactive
16 | COc1ccc([C@H]2CC(=O)C=C(c3ccc(OC)cc3OC)C2)cc1 | inconclusive: 18.4 µM [activator, single point]
17 | Nc1nc(Nc2cccc(C(F)(F)F)c2)nc(C(F)(F)F)n1 | inconclusive: 18.4 µM [activator, single point]
18 | CCOC(=O)c1c(NC2OC(=O)c3c2ccc(OC)c3OC)sc(C(=O)OC(C)(C)C)c1C (stereo not given) | inactive
19 | COc1cc2c(cc1OC)-c1cc(Nc3ccccc3Br)nc(=O)n1CC2 | inconclusive: 9.2 µM [activator, partial curve]
20 | CCCn1c2ccc(F)cc2c2nnc(SCCN3CCOCC3)nc21 | inactive
21 | C/C(Cl)=C\Cn1c(Nc2ccccc2)nc2c1c(=O)n(C)c(=O)n2C | inconclusive: 2.91 µM [activator, full curve, poor fit]
22 | COc1ccc2c(c1)c1ncn(CCCN3CCOCC3)c(=O)c1n2C | inconclusive: 8.2 µM [activator, partial curve]
23 | COc1cc(-c2noc(C)c2C#Cc2ccc(N)cc2)cc(OC)c1OC | inconclusive: 18.4 µM [activator, partial curve]
24 | CCOCCCn1c(=NC(=O)c2cccnc2)c(C(=O)OCC)cc2c(=O)n3ccccc3nc21 | inactive
25 | O=C(OCc1csc(-c2ccccc2)n1)c1ccccc1O | inactive
26 | NC[C@H](O)c1ccc(O)c(O)c1 | inconclusive: 5.17 µM [activator, partial curve]
27 | O=c1cc(C(Cl)(Cl)Cl)oc2c1ccc1ccccc12 | inconclusive: 4.11 µM [activator, single point]

Row | SMILES | Potency
28 | CCOC(=O)c1nnn(-c2nonc2N)c1-c1cccs1 | inactive
29 | CCN(CCO)c1ncnc2c1sc1nc(CC(C)C)c3c(c12)CC(C)(C)OC3 | inconclusive: 20.6 µM [activator, single point]
30 | COc1ccc(-c2cc3cc(OC)c(OC)cc3cn2)cc1 | inconclusive: 18.4 µM [activator, single point]
31 | Cc1nn(-c2ccccc2)c(Cl)c1/C=N/NC(N)=O | inactive
32 | COc1cccc(-c2cc(NC(C)=O)c3ncc(-c4ccc(OC)c(OC)c4)n3c2)c1 | inconclusive: 20.6 µM [activator, single point]
33 | Oc1ccccc1/C=N/N1CCN(c2ccccn2)CC1 | inactive
34 | CCN=C1S/C(=C\c2cn(CC)c3ccccc23)C(=O)N1CC | inactive
35 | COc1ccc(-c2cc(NC=O)c3ncc(-c4cccc(C(F)(F)F)c4)n3c2)cc1OC | inconclusive: 20.6 µM [activator, single point]
36 | Cc1nc2c3cc(F)ccc3n(Cc3ccccc3F)c2s1 | inconclusive: 18.4 µM [activator, single point]
37 | CCOC(=O)C1CCCN(C2=NC(=O)/C(=C/c3ccc(O)c(OCC)c3)S2)C1 (stereo not given) | inactive
38 | N/C(Cc1ccccc1)=N\OC(=O)c1cccc2ccccc12 | inconclusive: 16.4 µM [activator, partial curve]
39 | COc1cc2c(cc1OC)-c1cc(N3CCCCCC3)nc(=O)n1CC2 | inconclusive: 1.3 µM [activator, full curve]
40 | CCOC(=O)c1cn(-c2ccccc2)nc1-c1ccncc1 | inactive
41 | CC(C)NCC(O)c1cc(O)cc(O)c1 (stereo not given) | inconclusive: 0.206 µM [activator, full curve]
42 | COc1cc2c(cc1OC)-c1cc(N3CCc4ccccc43)nc(=O)n1CC2 | inconclusive: 14.6 µM [activator, partial curve]
43 | Cc1n[nH]c(=S)n1/N=C/c1ccccc1OCc1ccc(Cl)cc1 | inconclusive: 16.4 µM [activator, single point]
44 | COc1cc2c(cc1OC)-c1cc(Nc3ccccc3C)nc(=O)n1CC2 | inconclusive: 10.3 µM [activator, partial curve]
45 | COc1cc2c(cc1OC)C(CSc1ccccc1C(=O)O)=NC(C)(C)C2 | inconclusive: 20.6 µM [activator, single point]
46 | CCOc1ccc(C2=Nn3c(nnc3-c3ccc(OC)cc3)SC2)cc1 | inconclusive: 16.4 µM [activator, single point]
47 | COc1ccc(-c2cnc3c(NC=O)cc(-c4ccc(F)cc4)cn23)cc1OC | inconclusive: 2.31 µM [activator, full curve]
48 | COc1ccc(C(C)=O)cc1COC(=O)c1ccc2c(c1)OCCO2 | inactive
49 | CCOc1ccccc1CNS(=O)(=O)c1ccc(-c2cnc(C3CC3)o2)cc1 | inconclusive: 20.6 µM [activator, single point]
50 | CC(C)(C)NCC(O)c1cc(O)cc(O)c1 (stereo not given) | inconclusive: 0.103 µM [activator, full curve]
51 | COc1cc2c(cc1OC)-c1cc(NC3CCCCCCC3)nc(=O)n1CC2 | inconclusive: 7.31 µM [activator, partial curve]
52 | COc1ccc(COC(=O)c2cc([N+](=O)[O-])ccc2N2CCOCC2)cc1F | inconclusive: 20.6 µM [activator, partial curve]
53 | NS(=O)(=O)c1cccc(NC(=O)Nc2ccccc2)c1 | inactive
54 | O=C(NCc1cccs1)c1cccc2c(-c3cccnc3)coc12 | active: 9.2 µM

Row | SMILES | Potency
55 | OC[C@H]1O[C@@H](n2cnc3c(Nc4ccccc4)ncnc32)[C@H](O)[C@@H]1O | inconclusive: 6.51 µM [activator, partial curve]
56 | CN(C)c1ncnc2sc(-c3ccccc3)cc12 | inactive
57 | CC1(c2ccccc2)NC(=O)N(CC(=O)NNC(=O)c2ccccc2F)C1=O (stereo not given) | inactive
58 | COc1cccc(C2=CC(=O)C[C@H](c3ccc(OC)c(OC)c3)C2)c1 | inactive
59 | Fc1ccccc1COc1ccc(Br)cc1CNCc1cccnc1 | inactive
60 | CC(=O)Nc1nc(CC(C)C)cc2c1c(=O)oc1ccccc12 | inactive
61 | COc1ccc(C2=Nn3c(nnc3-c3ccccc3OC)SC2)cc1OC1CCOC1 (stereo not given) | inconclusive: 3.66 µM [activator, full curve]
62 | N#C/C(=C\c1ccc(N2CCOCC2)c([N+](=O)[O-])c1)c1nc2ccccc2[nH]1 | inactive
63 | CC(=O)c1ccc(-c2cnc3c(NC=O)cc(-c4ccccc4Oc4ccccc4)cn23)cc1 | inactive
64 | COc1ccc(CN(C)Cc2nc(Cc3ccccc3Cl)no2)cc1OC | active: 16.4 µM
65 | Cc1nc(Nc2ccccc2C)c2cnn(C)c2n1 | inconclusive: 6.51 µM [activator, partial curve]
66 | COc1cc2cnc(-c3ccccc3F)cc2cc1OC | inconclusive: 23.1 µM [activator, single point]
67 | CCc1ccc(C(=O)COC(=O)c2cc([N+](=O)[O-])ccc2NCCO)cc1 | inactive
68 | COc1cc(-c2nc(Cc3ccccc3Cl)no2)cc(OC)c1OC | inactive
69 | Cc1ccccc1Nc1nc(N)nc(-c2oc3ccccc3c2C)n1 | inactive
70 | CCN(CC)c1ccc(Nc2cc3n(c(=O)n2)CCc2cc(OC)c(OC)cc2-3)cc1 | inconclusive: 2.91 µM [activator, full curve]
71 | Cc1cccc(Nc2nc(N)nc(-c3oc4ccccc4c3C)n2)c1 | inconclusive: 16.4 µM [activator, single point]
72 | CCOc1ccc(C2=Nn3c(nnc3-c3ccccc3OC)SC2)cc1 | inconclusive: 9.2 µM [activator, partial curve]
73 | COc1ccccc1-c1cc(NC=O)c2ncc(-c3ccc(S(C)(=O)=O)cc3)n2c1 | inconclusive: 6.51 µM [activator, partial curve]
74 | O=C(NCC1COc2ccccc2O1)c1cc2ccccc2o1 (stereo not given) | inconclusive: 29.1 µM [activator, single point]
75 | COc1cccc(-c2cc(NC=O)c3ncc(-c4ccc(C(C)=O)cc4)n3c2)c1 | inconclusive: 10.3 µM [activator, partial curve]
76 | C#CCOc1ccc2c3c(c(=O)oc2c1)CCCC3 | inactive
77 | CCCCn1c(=NC(=O)c2cccnc2)c(C(=O)OCC)cc2c(=O)n3ccccc3nc21 | inactive
78 | COc1ccc(C2=Nn3c(nnc3-c3ccccc3OC)SC2)cc1OCC1CC1 | inconclusive: 9.2 µM [activator, partial curve]
79 | COc1cc(SC)ccc1C(=O)Nc1ccccc1 | inactive
80 | OCc1cc(C(O)CNCCCCCCOCCCCc2ccccc2)ccc1O (stereo not given) | inconclusive: 4.11 µM [activator, partial curve]
